Experimental data: the supplement of paper PMC12632987
Whole data set: some 1,800 sequences, median “median log2 fold change of GCK-ALFA target abundance (FLAG IP / Myc IP barcode read proportion)” near 0.14, cut for the lowest 2% near -0.84. The list shows a part of the results.

T1: TRAF2, Q12933
T1 chain: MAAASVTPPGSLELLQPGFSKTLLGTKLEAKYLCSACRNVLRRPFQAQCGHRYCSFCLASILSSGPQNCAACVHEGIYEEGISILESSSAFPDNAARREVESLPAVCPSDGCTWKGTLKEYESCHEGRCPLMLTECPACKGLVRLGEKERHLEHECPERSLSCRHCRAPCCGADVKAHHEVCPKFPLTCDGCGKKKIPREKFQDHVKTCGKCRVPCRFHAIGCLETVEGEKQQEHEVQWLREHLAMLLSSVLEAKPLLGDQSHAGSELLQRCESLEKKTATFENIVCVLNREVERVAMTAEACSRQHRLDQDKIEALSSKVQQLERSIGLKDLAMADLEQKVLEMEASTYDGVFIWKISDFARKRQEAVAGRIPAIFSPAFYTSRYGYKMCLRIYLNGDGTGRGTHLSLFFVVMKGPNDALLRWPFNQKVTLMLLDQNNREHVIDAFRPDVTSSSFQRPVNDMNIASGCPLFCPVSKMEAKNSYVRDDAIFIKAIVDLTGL

B1: traf2_out_13_95_1217 (protein)
chain: SKEANEERRKVANDMLDRAEAVIDDLAAKLAPYPETKADIDAIRHALNNHGISAAIAKLEEAAKKYPEVAELFEAAAAELRAIRAEAGKKFAEIDKKELE
B2: traf2_out_20_3_2218 (protein)
chain: DELKKEIKKKLEEMEKLLEEAKPLLKPEDYAELKKLLEEAKKALEKDLTDALVKLSELRRKALELAQKAKAAGNEELAKLLEEMAELANKAAGLVLKAIE
B3: traf2_out_17_178_1692 (protein)
chain: SKEEERAKISALTDELIDLAEATGRRLLALAEAAGALSPEELAALRRATRLGSARDVLALTARAPPELRADPEVQALVADLRARTRELGKKIAEAYERYE
B4: traf2_out_11_155_696 (protein)
chain: EEKIKLNNELVDEMMKIEDEAKAKLAEIADAAAAEHPEHAAEIAALLEESRRFSATTMAGMLAALFRELGLEEYAARVEELREEAQKKKNEIYKEIEKKM
B5: traf2_out_1_158_922 (protein)
chain: DTLKNLILSVIELTGQNAIDSARDNGDEETAKALEKLTKEILEAAKKLLFEENKSPEEVIKEIEKIAEKAEKEVDEETAEAIRELRRKIVSGIKQVVKLM
B6: traf2_out_11_57_903 (protein)
chain: ELEKLLKELEKIARELLKILEEAGAPESLIQLAKRLKEIVEDAKESDTETRKLLLEAAKYRAKQIVDEIKAAGPSTPELKKALELAEEAKKLAKEAIKLL
B7: traf2_out_20_154_1999 (protein)
chain: SILDKLNEEAEKASLYRFKSRLYRLAAQEKAKPGSAAKELATLKKTYKADPEKVAAYEEVEKDLAAGASVEEFEAKAAEYEKKYKETNKKVNELLKKYEE
B8: traf2_out_18_117_1775 (protein)
chain: SERDKIIAELKALAEELDAAASRLGKAVLEHWDELTPEERSAAMDVLADLSAVRREALELIHRIEEEGLPLEEAKERAEALKKRADAALAAADAMIARIA
B9: traf2_out_17_178_1667 (protein)
chain: SKEEKRKKISEATDELIDLAEEAAATLLAIARAEGVATPEELAAIEAARRRGSANEVLALMDRFEPRSPRAAEVAALRDDFRARYRELAKKIAEAYKEYE
B10: traf2_out_1_158_919 (protein)
chain: DVKNNLMLATIKLVVENQVQSALDDGDEEAAKEIKELGEKLIELAKKLQIEEKKSVEELIEAIRKLVEERKKKVDEKTAERIKRLERQVISGLKQVDKLM
B11: traf2_out_20_3_2165 (protein)
chain: EELEKEAEKELEKALKLLKEAAKLSDPETAKKLEELIKRLKASKSLSPVDRLVVVSEVRREVLRLAEEAKKAGKEELAKLLEKAADELNRLAQLLNKIIE
B12: traf2_out_5_63_2369 (protein)
chain: SSREEERKKLTEEAKEIEKIVLEALKLSREEAKKLVEEAAERGLDINLIAGTFRAHARFLRLQGGDEEEIEKAEELAKFAEELRKKKEAEAAAKAAALAA
B13: traf2_out_20_3_2133 (protein)
chain: EELRRAYREALAEAIALLKEAAKLADPETAKRLEALVARLKASEELPLEDQLVVLSEVRREVRALAEEARRAGKEELAAVLEAAADALNRAMNLVMRLIE
B14: traf2_out_5_192_2334 (protein)
chain: AAAAAAAREAFLAAARAELTAEVAALAAEADRISEEELTIRLEHAVLTLLNRAETAEQREAVIAIAREVLEAEPRISPETVEGVVRTARQVLEALEAVDA
B15: traf2_out_11_155_741 (protein)
chain: EEKQKLLQEMNQKITDLFDKAKEKALEIAEEAAKKHPEHAEEIKELIEKTKGFSYRSFILSLIELFEKLGLEEEAKKLKELLEKTQKEANKIVQETEKKL
B16: traf2_out_6_156_2445 (protein)
chain: MKEAILAETKAKLEEEIKKLAKASEEKKIKYISNIAGTVYRALQRLREAGASLEEIKAFAEEVKAFIEKEAKKYGLDEDTKNLLLSSVNAVFDVALAEAK
B17: traf2_out_19_16_1966 (protein)
chain: ARERLEELERELEEIEERVERLEKYFEENKETLTREEASDLLVEVSELRRRAREILQELEELEPYDPERVEELKRRAEEVIERAQRLMNELVDLYLSLQK
B18: traf2_out_11_169_781 (protein)
chain: KEAEFNRKLNDFALELNDKAKEELKKAALERAKEAGLDVAEVEAIFEANKGKSLSAIAAALIAHYRSLGREDEAAWVLKLYEELKEKINKEVTAKIKELK
B19: traf2_out_20_8_2268 (protein)
chain: MSMEEKLARAADLILEAKDLVRATVRAVLADERAPAVARRAAAALSVSVSADDTDADILARIRDRAAAALDALAAETGDPRLADARARVAAALDARAAAA
B20: traf2_out_13_95_1173 (protein)
chain: EEEKTKKEREIASEAFDKREAVATDFAARVRALIDDPEADALMDEVVRNMNIYTLRHAGAELQAAHPDKAAELAALTAAAEAEMRAIDKETTEKLNAIEE
B21: traf2_out_1_158_918 (protein)
chain: DTKRLLMLSSVELVVRDAVESARENGDEETAKALEELGKEVIELVRKLAIEEGKSAEEVIAAIEKLGAEAAAKADPETAAAIERLTRRVISAIKQVEKLM
B22: traf2_out_16_177_1463 (protein)
chain: ELSKVMDRILILSHLRKAAEAILEGRPEEAAKHLAEAEKEAEEAGDEEGLALIAEIRALAAEDTPEARAQLAALATELGKKAQEKVDLAEELIKARAEAE
B23: traf2_out_20_154_1997 (protein)
chain: PTDEEIDAVSDKLVDASARARAARVAALALENPERADEIWATARAEYANDPLMMAELDRWRARVAAGATLEEFKAEAARYAAEARRLGEELERLIEERRK
B24: traf2_out_12_165_941 (protein)
chain: SMRERTEEIVRRAEEEIRRIADAAIAEIRANPDLTPEEVAALRERAVDEMVEVRQRALNELYKAGASIDELAEASERLRRVFDEARARLDAAAAEHLAAR
B25: traf2_out_9_108_2582 (protein)
chain: MSREEELEATYAAVLALAAEFRATHELTPEQRASLDAAIEQARRLAAEGEKETAIVLLAIDLARIASEVGDAALEELLARLAAIDPRAAAAAARMAKLLK
B26: traf2_out_17_162_1596 (protein)
chain: SALEEKLKELEKRLEELEKRLKELEEKLKNIEKLTPEELTDLLVEASEIKREALELLEEIEKLKDKIPEEKYKRLSERAEEIAERAQRIANKLYRKLLEK
B27: traf2_out_13_95_1048 (protein)
chain: SAETAAKIMEIADKMEEEALKLLEEAKKEVADDPEAKAVLEEALRLAEKRGISEAIHLLREASAANPEHKEKFDALIEKLEELRRKAGREVAEVLKEAEE
B28: traf2_out_18_167_1831 (protein)
chain: EEEIEEKKNELMDKMVEWSEVKREAQELLQELKADPSKLPEVLKKLKELAEKTGKYKEEVEKIETLPKEEALKAAEELLEKIIEDAQKEMNELYKKYEEL
B29: traf2_out_17_162_1547 (protein)
chain: GELEEELRRLREELEELRRRAERLESLLPELPKLSKEELTDLLVEASEARRRALRLAEEIERLREEIGEEEAERLRREALEVAERLQRIANAIYKQLEEK

Molecular target: T1, TRAF2, Q12933
Experiment: median log2 fold change of GCK-ALFA target abundance (FLAG IP / Myc IP barcode read proportion) (log2 ratio); each designed protein is fused to an ALFA-tag nanobody in HEK293 cells to bring the named protein to FLAG-tagged glucokinase (GCK); Myc marks an untargeted standard; higher = target protein stabilised (more abundant)
Conditions: target protein: 3xFLAG-MCP-GCK-ALFA reporter; HEK293 landing pad (RPLP)
Method in brief: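 Binders fused to an ALFA nanobody were recombined as a library into HEK293 landing-pad cells, which were induced with 2 μg mL^−1 doxycycline and then transfected to express a FLAG-tagged target and a Myc-tagged standard. After 48 h, circular RNA barcodes recovered by anti-FLAG and anti-Myc immunoprecipitation of lysates were reverse transcribed, amplified and sequenced. Each binder's target abundance is the median log2 ratio of FLAG to Myc barcode read proportions, from barcodes present at ≥10^−7 in both replicates, binders carrying ≥3 barcodes per replicate, a 10^−6 pseudocount and pooled replicates.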

In order of rising “median log2 fold change” value:
1. B25  -0.62
2. B12  -0.191
3. B13  -0.176
4. B8  -0.156
5. B19  -0.12
6. B18  -0.065
7. B3  -0.0433
8. B7  -0.0315
9. B24  -0.0195
10. B10  0.00946
11. B20  0.0716
12. B27  0.077
13. B9  0.105
14. B23  0.11
15. B16  0.135
16. B29  0.149
17. B22  0.163
18. B28  0.169
19. B21  0.18
20. B1  0.198
21. B17  0.225
22. B26  0.231
23. B6  0.276
24. B14  0.276
25. B15  0.279
26. B4  0.295
27. B2  0.304
28. B11  0.316
29. B5  0.336
